# PubChem BioAssay AID504339 (National Center for Advancing Translational Sciences (NCATS), 2011)
# “And” between values parts separate entries of the source, which are not always exact repeats. Equal values may be shown once. Out of some 390,000 compounds screened, about 17,000 (4.4%) were called active. The shares of active, inactive and inconclusive entries below differ from those in the screen. Calls follow the shape of the dose curve; as a rule, active = well fitted inhibition curve with a large enough effect; inconclusive = small, poorly fitted or top-dose-only effect; inactive = no such curve, though single readings can be large or run the other way. Potencies of inconclusive entries are doubtful fits and often do not repeat.
# Biological target: Lysine-specific demethylase 4A (Homo sapiens) (UniProt O75164)
# Assay: qHTS Assay for Inhibitors of JMJD2A-Tudor Domain; also: nearly all actives have a fitted effect of over 50% in size
# Settings: AlphaScreen JMJD2A-Tudor / H3K4me3 peptide binding; series mostly up to 114 µM
# Potency is read from the fitted curve at half-maximal effect; tags tell the direction and shape of the fitted curve.
# Sequence of UniProt O75164 (O75164 whole entry, looked up, the tested form may be a part): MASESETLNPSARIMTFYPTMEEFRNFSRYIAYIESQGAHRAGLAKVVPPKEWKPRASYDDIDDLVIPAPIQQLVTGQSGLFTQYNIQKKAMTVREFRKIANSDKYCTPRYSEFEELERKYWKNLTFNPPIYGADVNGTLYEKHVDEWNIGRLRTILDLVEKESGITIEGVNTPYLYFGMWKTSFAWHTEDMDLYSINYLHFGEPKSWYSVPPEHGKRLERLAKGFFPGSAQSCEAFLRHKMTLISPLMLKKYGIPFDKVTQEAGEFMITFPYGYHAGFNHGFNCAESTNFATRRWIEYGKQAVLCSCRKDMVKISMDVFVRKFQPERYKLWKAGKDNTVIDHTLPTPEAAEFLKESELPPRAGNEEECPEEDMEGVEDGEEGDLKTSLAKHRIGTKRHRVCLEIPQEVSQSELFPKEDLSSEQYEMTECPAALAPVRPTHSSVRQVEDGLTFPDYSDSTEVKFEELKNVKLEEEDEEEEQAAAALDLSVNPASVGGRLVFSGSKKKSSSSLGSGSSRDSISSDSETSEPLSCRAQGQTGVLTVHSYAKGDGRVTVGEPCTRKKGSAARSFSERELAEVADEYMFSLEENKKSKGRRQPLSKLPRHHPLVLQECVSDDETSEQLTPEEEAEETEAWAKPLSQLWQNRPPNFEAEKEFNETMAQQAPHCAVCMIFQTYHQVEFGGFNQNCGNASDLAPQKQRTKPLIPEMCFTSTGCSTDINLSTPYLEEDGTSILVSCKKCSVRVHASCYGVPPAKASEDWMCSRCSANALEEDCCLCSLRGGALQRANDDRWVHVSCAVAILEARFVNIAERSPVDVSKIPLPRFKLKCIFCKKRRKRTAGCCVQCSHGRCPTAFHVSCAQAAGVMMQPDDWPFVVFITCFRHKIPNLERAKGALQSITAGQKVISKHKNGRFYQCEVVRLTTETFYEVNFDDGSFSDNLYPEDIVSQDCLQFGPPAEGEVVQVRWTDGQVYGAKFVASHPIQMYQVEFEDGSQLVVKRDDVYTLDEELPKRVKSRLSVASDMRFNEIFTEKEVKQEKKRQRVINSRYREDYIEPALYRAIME
row,SMILES,Potency
1,Cc1cc(C(=O)COC(=O)Cc2n[nH]c(=O)c3ccccc23)c(C)n1-c1cccc(C(F)(F)F)c1,"inconclusive: 50.1 µM [inhibitor, partial curve]"
2,CN1C(=O)N(C)C2(c3ccccc3)Nn3c(s/c(=C/c4ccco4)c3=O)=NC12c1ccccc1 (stereo not drawn),inactive
3,CCN(CC)c1cccc(OCC(=O)N(C)CCC#N)c1,"inconclusive: 50.1 µM [inhibitor, partial curve]"
4,O=C1S/C(=C\c2ccc(O)c([N+](=O)[O-])c2)C(=O)N1Cc1cccc([N+](=O)[O-])c1,"inconclusive: 4.47 µM [inhibitor, single point]"
5,Cc1ccc(C)n1-n1c(C)nc2sc3c(c2c1=O)CCCCC3,"inconclusive: 79.4 µM [inhibitor, partial curve]"
6,CC(=O)Nc1ccc(C(=O)CN2CCN(c3ccccc3)CC2)cc1,"inconclusive: 89.1 µM [inhibitor, partial curve]"
7,COc1ccccc1NC(=O)/C=C\C(=O)O,inactive
8,O=[N+]([O-])c1ccc(Sc2nnnn2-c2ccccc2)c(Cl)c1,"inconclusive: 44.7 µM [inhibitor, partial curve]"
9,O=C(N/N=C/c1c(O)n(-c2ccc(Cl)cn2)c(=O)c2ccccc12)C1CC1,"inconclusive: 89.1 µM [inhibitor, single point]"
10,O=C(NCC1CCCO1)C(=O)N/N=C/c1cc(Cl)ccc1O (stereo not drawn),active: 39.8 µM
11,NC(=O)c1ccc(NC(=O)COC(=O)/C=C/c2ccc(Br)o2)cc1,active: 20 µM
12,C/C(=N\Nc1nc2ccccc2s1)c1ccc(Br)s1,"inconclusive: 39.8 µM [inhibitor, partial curve]"
13,COc1ccc(NC(=O)c2ccc(NC(=O)CSc3nccc(=O)[nH]3)cc2)cc1,"inconclusive: 56.2 µM [inhibitor, partial curve]"
14,CN(C)CCCN(C(=O)c1ccco1)c1nc(-c2ccc(Cl)cc2)cs1,"inconclusive: 39.8 µM [inhibitor, full curve]"
15,CSCCC(C(=O)O)N1C(=O)c2ccc(C(=O)O)cc2C1=O (stereo not drawn),active: 79.4 µM
16,Cc1occc1-c1nnc(SCc2cc(=O)n3cc(Br)ccc3n2)n1C,"inconclusive: 89.1 µM [inhibitor, single point]"
17,Cc1[nH]c2ccc(F)cc2c1CCN(Cc1cccnc1)C(=S)Nc1ccccc1,"inconclusive: 50.1 µM [inhibitor, partial curve]"
18,COc1ccc(CN2C=C3C(=O)C(C)(OC(=O)C4CCCC4)C(=O)C=C3C=C2c2ccsc2)cc1 (stereo not drawn),"inconclusive: 89.1 µM [inhibitor, partial curve]"
19,Clc1ccc(-c2[nH]ncc2N=Nc2ccccc2)cc1,"inconclusive: 39.8 µM [inhibitor, partial curve]"
20,CCOC(=O)CSc1nc2ccc(NC(=O)COc3ccccc3)cc2s1,inactive
21,CCCN(CCC)C(=O)C[n+]1cccc(/C=N/O)c1,inactive
22,COCCn1nnnc1C(c1ccccc1)N1CCN(C(=O)c2ccco2)CC1 (stereo not drawn),"inconclusive: 15.8 µM [inhibitor, partial curve, poor fit]"

row,SMILES,Potency
1,CC1(C)C(=O)Nc2ccccc2N1C(=O)COc1ccccc1C#N,"inconclusive: 44.7 µM [inhibitor, partial curve]"
2,O=c1c2ccccc2nc(-c2ccccc2O)n1Cc1ccccc1,active: 79.4 µM
3,Cc1ccc(/C=N/N2CCN(Cc3ccccc3)CC2)s1,active: 50.1 µM
4,COC(=O)C1=C(C)N(c2ccc(F)cc2)/C(=C/c2ccc(O)cc2)C1=O,inactive
5,N=C1/C(=C\c2ccc(SCc3ccccc3)o2)C(=O)N=C2SC(CC(=O)N3CCOCC3)=NN12,"inconclusive: 50.1 µM [inhibitor, partial curve]"
6,CCOc1ccc(-c2cnc(NCc3cccc(Cl)c3)n2C)cc1,active: 20 µM
7,Cc1nc(N)sc1C(=O)N1N=N1,"inconclusive: 35.5 µM [inhibitor, single point]"
8,COc1ccc(-c2nnc3n2N=C(c2cc(OC)ccc2OC)CS3)cc1,"inconclusive: 50.1 µM [inhibitor, partial curve]"
9,Cc1cc(C)n(-c2nc(C(=O)O)cs2)n1,inactive
10,COc1cc(OC)c2c(-c3ccccc3)cc(=O)oc2c1C(CC(=O)N1CCOCC1)c1ccc2c(c1)OCO2 (stereo not drawn),"inconclusive: 70.8 µM [inhibitor, single point] and inconclusive: 56.2 µM [inhibitor, partial curve]"
11,Oc1ccc(C[C@H]2CNC(=S)N2CC2CCCN2C[C@H](Cc2ccc(O)cc2)N2C[C@H](Cc3ccccc3)N(CC3CCCCC3)C2=S)cc1 (stereo partly drawn),"inconclusive: 31.6 µM [inhibitor, partial curve]"
12,CC(=O)c1ccc(NC(=O)/C(=C\c2ccccc2)NC(=O)/C=C/c2ccccc2)cc1,inactive
13,CN1CCN(CCCN2c3ccccc3Sc3ccc(Cl)cc32)CC1,active: 50.1 µM and active: 44.7 µM
14,C/C(=C\c1ccccc1F)C1Nc2cccc3cccc(c23)N1,"inconclusive: 39.8 µM [inhibitor, partial curve]"
15,CCOC(=O)c1c(NC(C)=O)sc2c(O)c(CN3CCN(CC)CC3)ccc12,"inconclusive: 56.2 µM [inhibitor, partial curve]"
16,C#CCOCCOCCOCCNc1nc(N2CCN(C(=O)Cn3cc(CCO)nn3)CC2)nc(N2CCN(C(=O)[C@H](CCCCN)n3cc(CC(C)O)nn3)CC2)n1 (stereo partly drawn),active: 89.1 µM
17,CCn1cc(CCC(=O)O)c(C)n1,inactive
18,COc1cc(OC)c(OC)cc1CN1CCc2nc(N3CCN(c4ncccn4)CC3)ncc2C1,"inconclusive: 50.1 µM [inhibitor, partial curve]"
19,Cc1ccc2c(c1)c(C)c(C)n2CC(O)CN1CCCCC1C (stereo not drawn),"inconclusive: 44.7 µM [inhibitor, full curve]"
20,Cc1cccn2c(=O)c3cc(C(=O)N4CCN(C(=O)c5ccco5)CC4)n(C)c3nc12,"inconclusive: 25.1 µM [inhibitor, single point]"
21,Cc1cccn2c(=O)c(/C=C(\C#N)C(N)=O)c(N3CCN(Cc4ccc5c(c4)OCO5)CC3)nc12,"inconclusive: 70.8 µM [inhibitor, single point]"
